In PubChem BioAssay AID1030 (National Center for Advancing Translational Sciences (NCATS), 2008):
About 16,000 (7.3%) of roughly 220,000 compounds were called active. The inconclusive results got no clear call from the source; some entries with a clear call stand among them for comparison. Calls come from the whole dose curve; as a rule, active = well fitted inhibition curve with a large enough effect (not every such curve was filed as active); inconclusive = small, poorly fitted or top-dose-only effect, or another doubt; inactive = no such curve, though single readings can be large or run the other way. No potency is given beside an inconclusive call; the fits are too rough. Some compounds were tested as several samples or in several runs, with calls that do not always agree.

Target: Aldehyde dehydrogenase 1A1 (Homo sapiens) (UniProt P00352)
Sequence of UniProt P00352 (P00352 whole entry, looked up): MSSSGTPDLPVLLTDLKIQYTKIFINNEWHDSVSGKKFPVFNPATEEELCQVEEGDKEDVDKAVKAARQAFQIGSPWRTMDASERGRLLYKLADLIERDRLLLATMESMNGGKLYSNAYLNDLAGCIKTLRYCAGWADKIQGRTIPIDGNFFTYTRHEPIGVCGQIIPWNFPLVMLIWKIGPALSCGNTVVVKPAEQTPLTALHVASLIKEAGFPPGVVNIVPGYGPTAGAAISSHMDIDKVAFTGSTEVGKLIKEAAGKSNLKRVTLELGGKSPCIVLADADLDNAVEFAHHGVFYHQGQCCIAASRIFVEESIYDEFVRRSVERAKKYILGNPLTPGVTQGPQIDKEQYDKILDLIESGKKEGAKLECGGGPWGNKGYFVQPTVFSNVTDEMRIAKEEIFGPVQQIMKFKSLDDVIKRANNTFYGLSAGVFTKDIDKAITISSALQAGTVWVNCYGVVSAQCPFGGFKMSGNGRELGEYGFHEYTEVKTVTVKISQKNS
Assay: qHTS Assay for Inhibitors of Aldehyde Dehydrogenase 1 (ALDH1A1)
Details: Purified ALDH1A1, NADH fluorescence, propionaldehyde substrate; series mostly up to 75.3 µM
Potency is the fitted concentration of half-maximal effect; tags give direction and shape of the fitted curve.

Structure (SMILES) | Potency
CN(CCC#N)C(=S)NC(=O)c1ccc(S(=O)(=O)N2CCOCC2)cc1 | inconclusive [inhibitor, single point]
COC(=O)c1cccc(NC(=O)CSc2nc(C)cc(=O)[nH]2)c1 | inconclusive [inhibitor, single point]
COc1ccc(CNC(=O)C(c2cccs2)N(Cc2ccco2)C(=O)Cc2cccs2)cc1 (configuration not stated) | active: 2 µM
O=C(Cc1ccccc1F)Nc1nc(-c2cccnc2)cs1 | active: 25.1 µM
O=S(=O)(c1ccc(OCC2CO2)cc1)c1ccc(OCC2CO2)cc1 (configuration not stated) | inconclusive [inhibitor, single point]
Cc1ccccc1-n1cc[nH]c1=S | inconclusive [inhibitor, single point]
Fc1ccc2c(c1)C(c1cccnc1)=NNC(c1cccs1)=N2 | inconclusive [inhibitor, single point]
N#Cc1ccc(C(=O)OCC(=O)Nc2ccc(N3CCOCC3)cc2)cc1 | inconclusive [inhibitor, single point]
Cc1ccc(C(=O)Nc2ccc3c(c2)CCC3)cc1S(=O)(=O)N1CCOCC1 | inconclusive [inhibitor, single point]
O=S(=O)(N/N=C1/CC(c2ccccc2)Oc2ccccc21)c1ccc(Br)cc1 (configuration not stated) | active: 22.4 µM
CN(C)C(=O)c1c(NC(=O)c2ccco2)sc2c1CCCCC2 | inconclusive [inhibitor, partial curve]
CCOC(=O)c1[nH]c2cc(OC)c(OC)cc2c1N | inconclusive [inhibitor, partial curve]
O=C(NC1CCCC1)c1cccc(Cn2cc([N+](=O)[O-])cn2)c1 | inconclusive [inhibitor, single point]
CCOCC(=O)Nc1nnc(C2CCCCC2)s1 | active: 18.9 µM
CC1C2NC(=O)N(Cc3ccccc3)C1(C)Oc1ccccc12 (configuration not stated) | inactive
O=C(O)c1cccc(NC(=S)N/N=C/c2cccc(O)c2)c1 | inactive
CCOC(=O)Cc1nnc(NC(=O)CSc2nnc3c4ccccc4n(C(C)C)c3n2)s1 | active: 28.2 µM
O=C(CCCNS(=O)(=O)c1ccc(Cl)c(Cl)c1)NCCc1ccccn1 | inactive
O=C(COc1cc(F)ccc1[N+](=O)[O-])Nc1cccc(Br)c1 | inactive
CCOC(=O)N(NC(=O)C(O)(c1ccccc1)c1ccccc1)c1ccccc1 | inconclusive [inhibitor, partial curve]
Cc1oc(-c2ccccc2Cl)nc1Cn1cccc1C1=NC(c2ccccc2)CO1 (configuration not stated) | inconclusive [inhibitor, single point]
O=C(NC(=S)NCC1CCCO1)c1ccc([N+](=O)[O-])cc1 (configuration not stated) | inconclusive [inhibitor, single point]
Cc1nc(NS(=O)(=O)c2ccccc2)sc1NC(=O)OCCN(C)C | active: 14.1 µM
Cn1c(N)c(C(=O)NCc2ccccc2)sc1=S | active: 20 µM
FC(F)Oc1ccc(NC(=S)NCc2ccco2)cc1Cl | active: 14.1 µM
CCCCn1nc(NC(=O)c2cccs2)c2cc3cc(OC)ccc3nc21 | inconclusive [inhibitor, single point]

Structure (SMILES) | Potency
CCOC(=O)C(C)Oc1nc(Oc2ccccc2)nc(N(C)C)n1 (configuration not stated) | inconclusive [inhibitor, single point]
Cn1c(C(=O)NC2CCCCCC2)cc2c(=O)n(C)c3ccccc3c21 | inconclusive [inhibitor, partial curve]
COc1ccc(C)cc1NC(=O)NCc1ccc(F)cc1 | inactive
Cc1c(Cl)c(C(=O)NC2C3CC4CC(C3)CC2C4)nn1C (configuration not stated) | inconclusive [inhibitor, single point]
CCOc1ccc(-c2csc(Cn3c(CN4CCN(C)CC4)nc4ccccc4c3=O)n2)cc1 | active: 14.1 µM
COCCn1c(C)cc(/C=C2/NC(=O)N(c3cccc(Cl)c3)C2=O)c1C | inconclusive [inhibitor, single point]
Cc1ccc(C(=O)CSc2nnc(CNc3ccc(C)cc3C)o2)cc1 | inactive
CCOC(=O)N1CCN(CC(O)COCc2ccc(Cl)cc2)CC1 (configuration not stated) | inactive
COc1ccc(-c2cc(C(F)(F)F)n3nc(C(=O)N4CCCCC4)cc3n2)cc1OC | inactive
CC(C)N(CCNC(=O)c1ccc(Cc2nc3ccccc3[nH]2)cc1)C(C)C | inconclusive [inhibitor, single point]
COc1ccc(/C=C/CN2CCCC(CO)(Cc3cccc(Cl)c3)C2)cc1 (configuration not stated) | active: 20 µM
C=CCN1C(=O)/C(=c2\sc3nc(=O)c(Cc4ccc(OC)c(OC)c4)nn3c2=O)c2ccccc21 | active: 3.16 µM
O=C1CN(c2ccc(Br)cc2)C(=O)N1CC(=O)N1CCCc2ccccc21 | inconclusive [inhibitor, single point]
CN(C)c1nc(N(C)C)nc(N(C#N)CN2C(=O)c3ccccc3C2=O)n1 | inactive
CCCCC/C=C\C/C=C\CCCCCCCC(=O)O | active: 17.8 µM
O=C(NC(=S)N1CCCc2ccccc21)c1ccco1 | inconclusive [inhibitor, single point]
CCN(CC)S(=O)(=O)c1ccc(OC)c(NS(=O)(=O)c2cccc(C(=O)O)c2)c1 | inconclusive [inhibitor, single point]
COC(=O)/C=C1\NC(=O)C(C)S1 (configuration not stated) | inactive
Cc1cc(C)c(C(=O)CSC2=NC(N)=C(C#N)C3(CCCCC3)C2C(N)=O)cc1C (configuration not stated) | inactive
COc1ccc(-c2cc(-c3ccc(OC)cc3)[nH]n2)cc1 | inactive
CCOC(=O)C1CCCN(Cc2ccccc2C)C1 (configuration not stated) | inconclusive [inhibitor, single point]
CCN(CC)S(=O)(=O)c1ccc(N2CCOCC2)c(NC(=O)CCC2CCCCC2)c1 | active: 1.58 µM
COc1ccc(CC(NC(C)=O)C(=O)NC2CCN(C(=O)NCc3ccccc3)CC2)cc1OC (configuration not stated) | inactive
CCCn1c(=NC(C)=O)c(C(=O)OCC)cc2c(=O)n3ccccc3nc21 | inconclusive [inhibitor, partial curve]
CCOC(=O)c1nnn(CC(=O)N2N=C(c3ccccc3)CC2c2ccccc2)c1C(=O)OCC (configuration not stated) | inactive
CCO[C@@H]1OC(C(=O)N2CCCCCCC2)=C[C@H](c2ccc(C(F)(F)F)cc2)[C@H]1CCCO | inactive

Structure (SMILES) | Potency
COc1ccc(OC)c(/C=N/NC(=O)c2ccc3nc[nH]c3c2)c1 | inconclusive [inhibitor, single point]
CCc1ccccc1N1CSC2=C(C#N)C(c3ccccc3F)CC(=O)N2C1 (configuration not stated) | active: 2.82 µM
c1ccc(CNC2=NCCC2)nc1 | inconclusive [inhibitor, single point]
CCOC(=O)/C=C/C(=O)OCC(=O)Nc1ccc(Cl)cc1Cl | active: 25.1 µM
CCOc1ccc(C(=O)CC(=O)C(=O)NCCc2ccc(OC)c(OC)c2)cc1 | inconclusive [inhibitor, full curve]
CCOC(=O)c1[nH]c2ccc(OC)cc2c1NS(=O)(=O)c1ccc(Cl)s1 | inconclusive [inhibitor, single point]
CCCc1cc(-c2[nH]ncc2-c2ccc3c(c2)OCCCO3)c(O)cc1OC | inconclusive [inhibitor, partial curve]
O=C(O)CCC(=O)Nc1ccccc1Oc1ccccc1 | inactive
CCOC(=O)N1CCC(NC(=O)c2ccc3c(Cl)c4c(nc3c2)CCCC4)CC1 | inconclusive [inhibitor, full curve]
CC(C)Cn1c(O)c2ccc(C(=O)N=NC(=O)c3cccnc3)cc2c1O | inconclusive [inhibitor, full curve]
O=C(CC1CS(=O)(=O)CC1CC(=O)Nc1ccc2c(c1)OCCO2)Nc1ccc2c(c1)OCCO2 (configuration not stated) | inconclusive [inhibitor, partial curve]
O=C(CSc1nnc(NC(=O)C2CC2)s1)Nc1ccc2c(c1)OCCO2 | inactive
O=C(CSCc1c(F)cccc1Cl)NCC1CCCO1 (configuration not stated) | inactive
OCCNCc1cccc(OCc2ccccc2Cl)c1 | inactive
O=[N+]([O-])c1ccc(CN2CCSCC2)cc1 | inactive
Cc1cc2n(n1)C(c1cn(-c3ccccc3)nc1C)Nc1ccccc1-2 (configuration not stated) | inconclusive [inhibitor, full curve]
Cc1ccccc1NC(=O)COC(=O)/C=C/c1cn(-c2ccccc2)nc1-c1cccnc1 | inconclusive [inhibitor, single point]
COCCNC(=O)c1ccc(-n2c(=O)c(=O)[nH]c3ccccc32)cc1 | inactive
CCCCN(C)C(=O)c1cc2cc3cc(OC)ccc3nc2o1 | inconclusive [inhibitor, partial curve]
CC(C(=O)NC1C(=O)N2C(C(=O)O)=C(CSc3nnnn3C)CSC12)n1cc(Br)cn1 (configuration not stated) | active: 15 µM
O=C(CCCn1c(=O)[nH]c2ccc(Br)cc2c1=O)NCc1ccc(Cl)cc1 | inactive
CCCNC(=O)c1cccc(C(F)(F)F)c1 | inconclusive [inhibitor, single point]
N#CC1=C(N)C2=CCCC[C@H]2[C@H](c2ccccc2)C1(C#N)C#N | inconclusive [inhibitor, single point]
CC(C)(C)c1ccc(CN2N=C(/C=C/c3ccccc3)CCC2=O)cc1 | inactive
Cc1ccc(-c2nnnn2-c2ccc(C)cc2)cc1 | inactive
